{"source": "ChEMBL document CHEMBL4888484", "about": "“Replenishing the malaria drug discovery pipeline: Screening and hit evaluation of the MMV Hit Generation Library 1 (HGL1) against asexual blood stage Plasmodium falciparum ,using a nano luciferase reporter read-out” (2022)", "note": "Out of some 150,000 compounds screened, about 540 (0.36%) showed an effect of 50% or more. The list shows a part of the results."}
{"test_system": "Plasmodium falciparum", "experiment": "Primary screen in NF54 nanoGlo assay, in single point, at 2uM, 72h; a lower Z score goes with more inhibition", "type": "functional, Erythrocyte", "conditions": "timepoint 72 hour", "units": {"% Inhibition": "%"}}
{"compound": "Cc1nc(N)ccc1-c1ccc(C(=O)N2C[C@H](CO)[C@@H](CO)C2)cc1", "% Inhibition": -1, "Z score": 0.08}
{"compound": "COc1cc(Cl)c(C)cc1NC(=O)N(C)Cc1nc(C)no1", "% Inhibition": -3, "Z score": 0.43}
{"compound": "CC(C)(C)OC(=O)N[C@@H](C(=O)O)c1ccc(Cl)cc1", "% Inhibition": -9, "Z score": 1.41}
{"compound": "CCc1cccc2c([C@H](CC(=O)N3CCN(c4ccccc4OC)CC3)c3ccc(Cl)cc3)c[nH]c12", "% Inhibition": -9, "Z score": 1.34}
{"compound": "Cn1cc(C2CC2C(=O)N(CCN2CCCC2)c2ccccc2)cn1", "note": "(centres undefined)", "% Inhibition": -6, "Z score": 0.77}
{"compound": "CC(NC(=O)C(F)(F)C(F)(F)C(=O)NC(C)C1CC2CCC1C2)C1CC2CCC1C2", "note": "(centres undefined)", "% Inhibition": 10, "Z score": -1.56}
{"compound": "Cc1cccc(-n2cc(-c3ccccc3)nc2NC(=O)CN(CC2CC2)C(=O)Cc2ccccc2)c1", "% Inhibition": 0, "Z score": 0.02}
{"compound": "Cc1noc(Cc2ccc(NCc3nocc3C)cc2)n1", "% Inhibition": 1, "Z score": -0.08}
{"compound": "CCCc1nc(C)cc(C[C@H]2CC(=O)N(CCOC)C2)n1", "% Inhibition": -4, "Z score": 0.52}
{"compound": "NC(=O)[C@@H]1CCCc2sc(NC(=O)c3ccc4c(c3)OCO4)nc21", "% Inhibition": -2, "Z score": 0.27}
{"compound": "CC(C)C[C@@H](CO)N(C)c1ccnc(N(C)C)n1", "% Inhibition": -1, "Z score": 0.19}
{"compound": "CCCOc1c(CN2CCC[C@H](CNS(C)(=O)=O)C2)cccc1OCC", "% Inhibition": -5, "Z score": 0.6}
{"compound": "COc1cccc(C(F)(F)CNC(=O)N[C@H]2C[C@H](OC)C2)n1", "% Inhibition": -2, "Z score": 0.32}
{"compound": "COc1cccc(-c2n[nH]c(C3CC3)c2NC(=O)C(C)(C)C)c1", "% Inhibition": -18, "Z score": 1.78}
{"compound": "C[C@H](NC(=O)NC1CCCN(C)C1=O)c1cncc(F)c1", "note": "(some centres undefined)", "% Inhibition": -6, "Z score": 1.09}
{"compound": "COCCN(Cc1ccc(C)c(Cl)c1)[C@@H](C)C(N)=O", "% Inhibition": -2, "Z score": 0.28}
{"compound": "CN1C[C@@H](C(=O)N2CCN(Cc3ccccc3)CC2)CC1=O", "% Inhibition": 8, "Z score": -1.08}
{"compound": "COc1cccc2[nH]cc(C(CC(=O)NC3CCS(=O)(=O)C3)c3ccsc3)c12", "note": "(centres undefined)", "% Inhibition": -12, "Z score": 2.25}
{"compound": "Cc1cccnc1CN(Cc1ccccc1)C(=O)NC1(C)CCCCC1", "% Inhibition": 5, "Z score": -0.82}
{"compound": "N#Cc1ccccc1CN1CC(c2cccnc2)C1", "% Inhibition": -4, "Z score": 0.46}
{"compound": "CC(C)Cc1cc(Cn2cc(-c3cncnc3)nn2)no1", "% Inhibition": -7, "Z score": 1.33}
{"compound": "O=C1CCCN1c1ccc(CNS(=O)(=O)c2ccc(Cl)cc2)cc1", "% Inhibition": 5, "Z score": -0.46}
{"compound": "CN1CCN(C(=O)c2ccc(C#N)cc2)C[C@@]12CCC(=O)N(CC1CC1)CC2", "% Inhibition": 1, "Z score": -0.08}
{"compound": "Cn1cc(-c2noc([C@@H]3Cc4ccccc4O3)n2)cn1", "% Inhibition": -1, "Z score": 0.11}
{"compound": "CCOc1ccccc1N(C)Cc1cncs1", "% Inhibition": -8, "Z score": 0.82}
{"compound": "CC(=O)N1CCC(CN(C)C(=O)NC2CC(C)(C)c3ccccc32)C1", "note": "(centres undefined)", "% Inhibition": -4, "Z score": 0.4}
{"compound": "COc1nn(C)cc1NC(=O)N[C@@H]1CCC[C@@H]1Oc1cnn(C)c1", "% Inhibition": -7, "Z score": 1.41}
{"compound": "O=C(O)[C@@H]1CN(C(=O)Cc2cc(C(F)(F)F)cc(C(F)(F)F)c2)CCN1", "% Inhibition": -6, "Z score": 1.23}
{"compound": "C=CC[C@@]1(O)C(=O)N2C(=C1C(=O)N1CCCCC1)c1ccccc1CC2(C)C", "% Inhibition": 10, "Z score": -1.4}
{"compound": "COc1ccc(CN2CCCN(C(=O)C(c3ccccc3)c3ccccc3)CC2=O)cc1", "% Inhibition": -6, "Z score": 1.15}
{"compound": "CC(C(=O)N1CCOCC1)N1CCCC1Cn1cccn1", "note": "(centres undefined)", "% Inhibition": -12, "Z score": 1.91}
{"compound": "Cc1nc2ccccc2n1Cc1cc(C(=O)NC2(C(N)=O)CCCC2)no1", "% Inhibition": -3, "Z score": 0.51}
{"compound": "O=C1NC(=O)[C@H](CCC(=O)N2CCN(S(=O)(=O)c3ccc4c(c3)CCCC4)CC2)N1", "% Inhibition": -16, "Z score": 1.37}
{"compound": "Cc1noc(C)c1CN1CCNC(=O)CC1", "% Inhibition": 31, "Z score": -4.11}
{"compound": "O=C(Cn1cnc2ccccc21)Nc1ccccc1-c1ccc(=O)[nH]n1", "% Inhibition": -4, "Z score": 0.6}
{"compound": "Cc1nc(N)sc1-c1ccn(CCO)n1", "% Inhibition": -5, "Z score": 0.88}
{"compound": "O=C(NCCN1CCCC1=O)c1ccc(-c2ccc(Cl)cc2F)cc1", "% Inhibition": 9, "Z score": -1.68}
{"compound": "Cn1c(=O)c2c(ncn2[C@@H](C(=O)c2ccccc2)c2ccccc2)n(C)c1=O", "% Inhibition": -3, "Z score": 0.48}
{"compound": "CCN(CCN1CCCCCC1)Cc1cnn(CC)c1", "% Inhibition": 1, "Z score": -0.1}
{"compound": "O[C@H](COc1ccccc1Cl)Cn1nc(C(F)(F)F)c2cnccc21", "% Inhibition": -1, "Z score": 0.06}
{"compound": "Cc1cccc2nc(-c3cc4c(cc3Cl)OCO4)[nH]c12", "% Inhibition": -14, "Z score": 1.35}
{"compound": "NC(=O)[C@@H]1C[C@@H](F)CN1C(=O)COC1CCCCC1", "% Inhibition": -17, "Z score": 2.37}
